These results are taken from PubChem BioAssay AID1159614 (National Center for Advancing Translational Sciences (NCATS), 2016).

SMILES strings stand for the structures. The whole screen tested about 45,000 compounds, of which about 65 (0.1%) were called active. The call rests on the fitted dose curve; in most records, active means well fitted activation curve with a large enough effect; inconclusive means small, poorly fitted or top-dose-only effect; inactive means no such curve, though single readings can be large or run the other way. This is one part of the list.

This assay addresses Galactocerebrosidase (Homo sapiens) (UniProt P54803). As to the kind of experiment: A Novel Cell-Based Assay to Identify Small Molecules for B -Galactocerebrosidase. Further: 0% is about no effect; nearly all actives have a fitted effect of over 65% in size. Particulars: 145M-Twi-hGALC-G270D cells (Twitcher mouse brain line with human GALC G270D), HMU-beta-Gal fluorescence, 48 h; series mostly up to 57.5 µM; activation: at the top concentration. Put shortly: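 Live 145M-Twi cells (Twitcher mouse brain-derived, GALC-null) stably expressing human GALC-G270D, with a wild-type GALC line, were compound-treated. Residual GALC activity was then read as fluorescence from 0.1 mM final HMU-β-gal at pH 5.2; higher signal means activation.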
Chain of UniProt P54803 (P54803 whole entry, looked up): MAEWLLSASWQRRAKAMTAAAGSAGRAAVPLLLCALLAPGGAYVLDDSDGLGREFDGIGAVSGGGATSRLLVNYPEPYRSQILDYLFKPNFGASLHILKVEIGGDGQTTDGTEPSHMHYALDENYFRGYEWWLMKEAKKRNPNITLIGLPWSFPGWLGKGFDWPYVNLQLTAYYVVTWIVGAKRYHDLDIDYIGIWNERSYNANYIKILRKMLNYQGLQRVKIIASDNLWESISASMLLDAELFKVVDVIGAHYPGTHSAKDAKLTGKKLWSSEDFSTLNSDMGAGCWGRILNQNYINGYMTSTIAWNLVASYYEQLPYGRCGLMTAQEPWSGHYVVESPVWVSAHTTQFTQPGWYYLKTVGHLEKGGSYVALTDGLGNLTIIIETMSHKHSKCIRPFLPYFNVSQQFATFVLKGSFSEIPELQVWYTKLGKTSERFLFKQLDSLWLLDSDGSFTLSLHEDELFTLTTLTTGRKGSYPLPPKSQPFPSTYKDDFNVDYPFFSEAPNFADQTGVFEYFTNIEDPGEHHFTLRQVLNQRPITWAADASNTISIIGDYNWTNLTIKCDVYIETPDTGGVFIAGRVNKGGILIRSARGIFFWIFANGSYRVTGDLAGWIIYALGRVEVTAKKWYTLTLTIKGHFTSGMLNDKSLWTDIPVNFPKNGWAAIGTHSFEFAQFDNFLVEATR
Take `Cc1cccn2c(=O)cc(COc3cccc(NC(=O)c4cccc(Cl)c4)c3)nc12`: the “activation” value was inactive: -5.66%.

Consider `Cc1cccc(-c2nnc(SCC(=O)N3CCCCC3)o2)c1`, for which the “activation” value is inactive: -3.54%.

Turning to `CSc1nnc2n(-c3cccc(C)c3)c(=O)c3c4c(sc3n12)CCCC4`, the “activation” value is inactive: -17.1%.

In the case of `CCOc1ccc(-c2nnc(SCC(=O)Nc3cc(C)ccc3OC)o2)cc1`, the “activation” value is inactive: -16.4%.

For `CC(C)c1ccc(NC(=O)Cn2c3ncccc3c(=O)n2-c2ccccc2)cc1`, the “activation” value is inactive: -6.15%.

Turning to `COc1cc(-c2nc(C(N)=O)c3c(n2)n(-c2cccc(C)c2)c(=O)n3C)cc(OC)c1OC`, the “activation” value is inactive: -17.3%.

With `CCn1c(CN2CCCCC2)nc2cc(NC(=O)c3cccc([N+](=O)[O-])c3)ccc21`, the “activation” value was inactive: -13.6%.

On to `Cc1c(C(=O)Nc2cccc(-c3nc4ccccc4s3)c2)oc2ccc(F)cc12`, for which the “activation” value is inactive: -4.82%.

For the compound `Cc1ccc(CCNC(=O)CSCc2nc(-c3ccc(C)cc3)oc2C)cc1`, the “activation” value was inactive: -12.4%.

Consider `COC(=O)c1ccccc1NC(=O)c1ccc(=O)n(Cc2cccc(C)c2)c1`, for which the “activation” value was inactive: -1%.

`N#Cc1cccc(NC(=O)C2CCN(c3nc(-c4ccc(Cl)cc4)no3)CC2)c1`: the “activation” value was inactive: -10.1%.

Turning to `Cc1ccc(CNC(=O)c2nn(C)c3c2CSc2ccc(C)cc2-3)cc1`, the “activation” value was inactive: -20.6%.

With `Cn1c(=O)oc2cc(S(=O)(=O)NC(Cc3ccccc3)C(=O)NCc3ccccc3Cl)ccc21` (stereo unspecified), the “activation” value is inactive: 0.522%.

For the compound `CCc1ccc(C(=O)c2cn(CC(=O)Nc3ccc4c(c3)OCO4)c3ccc(F)cc3c2=O)cc1`, the “activation” value is inactive: -4.5%.

For `COc1ccc(-c2n[nH]c3c2cnc2cc(OC)c(OC)cc23)cc1`, the “activation” value is inactive: -11.4%.

Turning to `CCOc1ccccc1CNC(=O)C1CCN(c2nc3ccccc3nc2C(F)(F)F)CC1`, the “activation” value was inactive: -12.6%.

`CCN(CC)S(=O)(=O)c1ccc2c(c1)c(=O)c(C(=O)N1CCN(c3cccc(Cl)c3)CC1)cn2C`: the “activation” value was inactive: -15%.

Take `Cc1ccc(CSC2=Nc3ccccc3C3=NC(CC(=O)NCc4ccc5c(c4)OCO5)C(=O)N23)cc1` (stereo unspecified): the “activation” value is inactive: -11%.

Regarding `Cc1cccc(C2N=C(N)Nc3nc4ccccc4n32)c1` (stereo unspecified), the “activation” value is inactive: -11.1%.

For the compound `COc1cc(OC)c(NC(=O)c2ccc3c(c2)N(Cc2ccc(C)cc2)CCS3)cc1Cl`, the “activation” value is inactive: -17.6%.

Take `O=C(Nc1ccc2nc(SCC(=O)N3CCCc4ccccc43)sc2c1)c1ccc(Cl)cc1`: the “activation” value is inactive: -15.3%.

In the case of `CCCS(=O)(=O)Nc1cc(-c2cn3ccc(C)cc3n2)ccc1C`, the “activation” value was inactive: -6.37%.

Consider `Cc1ccc(-n2ncc(C(=O)NC3CCN(Cc4ccccc4)CC3)c2C2CCN(C(=O)OC(C)(C)C)CC2)cc1C`, for which the “activation” value was inactive: -15.3%.

Consider `COc1ccc(CCCc2nnc(SCC(=O)Nc3ccc(C)cc3)o2)cc1C`, for which the “activation” value is inactive: -10.3%.

For `COc1ccc(C(=O)Nc2nc3n(n2)C(c2ccc(Cl)cc2)C=C(c2ccccc2)N3)cc1OC` (stereo unspecified), the “activation” value is inactive: -13.9%.

Take `Cc1ccc(C)c(CN2C(=O)c3ccccc3S(=O)c3ccc(C(=O)N4CCOCC4)cc32)c1` (stereo unspecified): the “activation” value is inactive: 4.19%.
